From paper PMC6919601, “Identification of Plasmodium dipeptidyl aminopeptidase allosteric inhibitors by high throughput screening” (PLoS ONE, 2019) come the findings set out here.

Structures are written as SMILES. Hit rate of the full screen: of about 110,000 compounds, about 230 (0.21%) showed an effect of 50% or more. This is one part of the list.
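Also: 30 min substrate incubation versus DMSO and 10 µM JCP410 controls.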

Sequence of DPAP1 (Q8IIJ9 whole entry, looked up): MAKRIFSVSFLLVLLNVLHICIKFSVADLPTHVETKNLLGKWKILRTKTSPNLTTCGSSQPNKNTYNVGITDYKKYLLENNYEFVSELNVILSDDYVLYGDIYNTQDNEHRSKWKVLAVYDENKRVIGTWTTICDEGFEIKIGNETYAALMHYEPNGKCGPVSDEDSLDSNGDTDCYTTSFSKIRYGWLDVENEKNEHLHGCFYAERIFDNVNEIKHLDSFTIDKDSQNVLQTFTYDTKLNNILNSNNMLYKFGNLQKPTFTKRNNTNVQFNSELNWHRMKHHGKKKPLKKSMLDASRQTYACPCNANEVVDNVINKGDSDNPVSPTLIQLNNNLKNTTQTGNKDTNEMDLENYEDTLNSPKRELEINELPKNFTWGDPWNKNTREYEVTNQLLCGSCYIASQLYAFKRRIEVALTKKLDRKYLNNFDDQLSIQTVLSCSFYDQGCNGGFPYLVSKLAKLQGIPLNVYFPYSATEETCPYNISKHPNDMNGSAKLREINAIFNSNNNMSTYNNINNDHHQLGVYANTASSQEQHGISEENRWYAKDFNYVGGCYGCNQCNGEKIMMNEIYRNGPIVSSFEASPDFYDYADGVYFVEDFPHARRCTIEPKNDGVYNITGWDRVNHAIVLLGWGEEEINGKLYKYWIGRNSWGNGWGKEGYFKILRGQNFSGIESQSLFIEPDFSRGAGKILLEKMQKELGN

The experiment has as its target DPAP1 (Plasmodium falciparum, UniProt Q8IIJ9). Nature of the experiment: primary screen, percent inhibition; read by cleavage of a fluorogenic dipeptide substrate; higher = more effect of the substance. On the set-up: species or system P. falciparum D10 trophozoite lysates; single well.
Turning to `CC(O)c1nc2ccccc2n1Cc1cccc(Cl)c1` (stereo not drawn), the “% Inhibition @ 10 uM” value turned out to be 1.12%.
`COc1ccc(C(=O)Nc2cc(C)c(O)c(S(=O)(=O)c3ccccc3)c2C)cc1`: the “% Inhibition @ 10 uM” value is recorded as -5.27%.
To `c1ccc2cc3[nH]c(CN4CCCCC4)nc3cc2c1` belongs 2.45%; to `OC(c1ccccc1)c1nc2ccccc2[nH]1` (stereo not drawn), 3.87%; to `CCOc1cccc(-n2cc(-c3ccccc3)nc2S)c1`, 42.6%.
Consider `O=C1NC(c2ccccc2Cl)C(C(=O)c2ccccc2)C(O)(C(F)(F)F)N1` (stereo not drawn), for which the “% Inhibition @ 10 uM” value is reported as 4.61%.
Regarding `O=C1c2ccccc2C(=O)c2c(NC3CCCCC3)cccc21`, the “% Inhibition @ 10 uM” value is -4.21%.
As for `O=C(COc1ccc(Cl)cc1Br)N1CCc2ccccc21`, the “% Inhibition @ 10 uM” value is -3.26%.
To `CCSC1=C(C#N)C(c2ccc(O)cc2)CC(=O)N1` (stereo not drawn) belongs 2.36%.
For `CC1CCN(S(=O)(=O)c2ccc(NC(=O)CCc3ccccc3)cc2)CC1` the value was 5.29%; for `Nc1nc(NCc2ccc(F)cc2)nn1-c1ccccc1`, 0.13%; for `CC12CC3CC(C)(C1)CC(C(N)=O)(C3)C2`, 1.24%.
For `COc1ccc(-c2csc3ncn(CC(=O)Nc4ccccc4Cl)c(=O)c23)cc1OC` the value was -1.6%; for `Cc1ccc(NC(=O)c2cccc(C(=O)Nc3ccc(C)cn3)n2)nc1`, -1.82%; for `COc1cc(C2NC(C(=O)O)Cc3c2[nH]c2ccccc32)cc(OC)c1O` (stereo not drawn), 4.89%.
Regarding `Cc1ccc2c(c1)-c1c(cnn1CC(=O)NC1CCCCC1)CO2`, the “% Inhibition @ 10 uM” value is 3.54%.
With `COc1cc(NCc2cccs2)cc(OC)c1`, the “% Inhibition @ 10 uM” value is given as -3.27%.
As for `COc1ccc(-c2nnn3c2nc(N2CCC(C)CC2)c2ccccc23)cc1`, the “% Inhibition @ 10 uM” value was -4.69%.
For `CCN(CC)S(=O)(=O)c1ccc(C#N)cc1` the value was 2.94%; for `CCOC(=O)CN(C)Cc1ccc(Cl)c(Cl)c1`, 1.62%.
`CN(Cc1ccccc1)C(C(=O)NC1CCCC1)c1ccccc1` (stereo not drawn): the “% Inhibition @ 10 uM” value was 0.457%.
To `CC(C)(C)NC(=O)c1oc2ccccc2c1NC(=O)Cc1ccc(F)cc1` belongs -0.528%; to `Cc1cc(C)n2nc(-c3cccc(Br)c3)cc2n1`, 4.67%.
Turning to `CC1CCC(C(C)C)C(=O)/C1=C\c1cnc(-c2ccccc2)nc1` (stereo not drawn), the “% Inhibition @ 10 uM” value came to 10.8%.
In the case of `CN(CCC#N)C(=O)c1cc2c(=O)n3ccccc3nc2n1C`, the “% Inhibition @ 10 uM” value is reported as 3.92%.
With `CCc1ccc(N2C(=O)CSC2c2ccc(Br)cc2)cc1` (stereo not drawn), the “% Inhibition @ 10 uM” value is given as -0.414%.
To `CCOc1ccc(/C=C2/SC(Nc3ccccc3O)=NC2=O)cc1` belongs 11.6%.
As for `C1=CC2CC1CC2CN1CCN(Cc2c[nH]c3ccccc23)CC1` (stereo not drawn), the “% Inhibition @ 10 uM” value was found to be 12.2%.
For `Cc1nnc2n(C)c(=O)c3c4c(sc3n12)CCC4`, the “% Inhibition @ 10 uM” value is on record as -5.28%.
For `N#Cc1c(-c2ccccc2)cc(-c2ccccc2)nc1N1CCOCC1` the value was -1.38%; for `CCOc1ccc(C(=O)C2=C(O)C(=O)N(CCN(CC)CC)C2c2ccc(OC)cc2)cc1C` (stereo not drawn), -0.178%; for `CC(=O)n1c2c(c3ccccc31)CCCC2=O`, 1.83%.
As to `Cc1cc(OCC(=O)N2CCCC2)c2c(C)c(Cc3ccccc3)c(=O)oc2c1`, the “% Inhibition @ 10 uM” value is recorded as -0.386%.
Consider `c1cnc2cc3c(cc2n1)Nc1nonc1N3`, for which the “% Inhibition @ 10 uM” value was -1.29%.
With `Fc1ccccc1-c1nn2c(COc3ccccc3)nnc2s1`, the “% Inhibition @ 10 uM” value is 1.74%.
To `CC1CCN(C(=O)COc2ccc(S(=O)(=O)NC3CCCCC3)cc2)CC1` belongs 2.98%.
In the case of `Cc1ccc(-n2ncc(C(=O)NCCCN3CCCCC3)c2-n2cccc2)cc1`, the “% Inhibition @ 10 uM” value worked out at 3.38%.
As for `Cc1cccc(OCC(=O)Nc2ccc(Nc3ccccc3)cc2)c1`, the “% Inhibition @ 10 uM” value was -2.3%.
To `Cc1ccc(/C=C2\SC(N3CCCCC3)=NC2=O)cc1` belongs 13.2%.
To `O[C@]12CCCC[C@@H]1[C@@H](c1cccnc1)NCC2` belongs 4.89%.
To `COc1ccccc1C(CC(=O)Nc1nccs1)c1ccc2c(c1)OCO2` (stereo not drawn) belongs -1.6%.
`CC(Cc1c[nH]c2ccccc12)NCc1ccc(N(C)C)cc1` (stereo not drawn): the “% Inhibition @ 10 uM” value amounted to 9.68%.
`Cc1cccc(NS(=O)(=O)c2cccc(C(=O)Nc3ccccc3C)c2)c1`: the “% Inhibition @ 10 uM” value came out at 1.64%.
Take `Cc1cccc(C(=O)NCc2ccco2)c1`: the “% Inhibition @ 10 uM” value came out at 5.09%.
To `COc1ccc(/C=C2/S/C(=N\c3ccccc3)N(C)C2=O)c(C)c1` belongs -7.9%; to `Cc1cc(C)cc(NS(=O)(=O)c2ccc(NC(=O)COc3ccccc3)cc2)c1`, 0.245%.
To `O=C(Cn1ncc2ccsc2c1=O)N1CCC2(CC1)OCCO2` belongs 0.44%; to `CCOc1ccc(/N=C2/S/C(=C\c3cccs3)C(=O)N2CC)cc1`, -9.56%.
As to `O=C1c2cccnc2C(=O)N1CCc1ccc(S(=O)(=O)N2CCN(Cc3ccccc3)CC2)cc1`, the “% Inhibition @ 10 uM” value is recorded as -1.43%.
To `c1cc2c(cc1C13CC4CC(CC(C4)C1)C3)c1c3n2CCNC3CCC1` (stereo not drawn) belongs -1.61%.
For `O=C1N/C(=C/c2ccc(F)cc2)C(=O)N1Cc1ccccc1F` the value was -1.32%.
